# Data taken from a collection of fitness landscapes (doi:10.1126/science.1257360).
# This is one part of the list.
# B1: PhoQ; a variant is named by its letters at X, in order, P23837 (parent)
# chain: MKKLLRLFFPLSLRVRFLLATAAVVLVLSLAYGMVALIGYSVSFDKTTFRLLRGESNLFYTLAKWENNKLHVELPENIDKQSPTMTLIYDENGQLLWAQRDVPWLMKMIQPDWLKSNGFHEIEADVNDTSLLLSGDHSIQQQLQEVREDDDDAEMTHSVAVNVYPATSRMPKLTIVVVDTIPVELKSSYMVWSWFIYVLSANLLLVIPLLWVAAWWSLRPIEALAKEVRELEEHNRELLNPATTRELTSLVRNLNRLLKSERERYDKYRTTLTDLTHSLKTPLXXLQXXLRSLRSEKMSVSDAEPVMLEQISRISQQIGYYLHRASMRGGTLLSRELHPVAPLLDNLTSALNKVYQRKGVNISLDISPEISFVGEQNDFVEVMGNVLDNACKYCLEFVEISARQTDEHLYIVVEDDGPGIPLSKREVIFDRGQRVDTLRPGQGVGLAVAREITEQYEGKIVAGESMLGGARMEVIFGRQHSAPKDE
# Variants of: B1
# Assay: enrichment ratio after two sorts for PhoP signalling (ratio (wild type AVST 3.29)); higher = more functional
# Settings: with PhoP (E. coli)
row,Variant,enrichment ratio
1,TWVG,≤ 0.25
2,VMDF,≤ 0.25
3,HMPH,≤ 0.25
4,WKSL,≤ 0.25
5,VMIC,≤ 0.25
6,DPPE,≤ 0.25
7,AEIR,2.03
8,MPPP,≤ 0.25
9,GCAY,≤ 0.25
10,ISHF,≤ 0.25
11,NFLS,≤ 0.25
12,TTKP,≤ 0.25
13,YQVT,≤ 0.25
14,WPAN,≤ 0.25
15,IFMT,≤ 0.25
16,NFYM,≤ 0.25
17,MDTW,≤ 0.25
18,EDGQ,≤ 0.25
19,IQFE,≤ 0.25
20,GKHR,≤ 0.25
21,MVNL,≤ 0.25

row,Variant,enrichment ratio
1,NWVT,≤ 0.25
2,YPAL,≤ 0.25
3,SDHI,≤ 0.25
4,YQDH,≤ 0.25
5,MGPN,≤ 0.25
6,FELC,4.63
7,TDPW,≤ 0.25
8,QLAK,≤ 0.25
9,QGKF,≤ 0.25
10,IYPM,≤ 0.25
11,GFVY,≤ 0.25
12,MWHI,≤ 0.25
13,REVY,≤ 0.25
14,EPNC,≤ 0.25
15,MMVM,≤ 0.25
16,AFKN,≤ 0.25
17,TRYI,≤ 0.25
18,NDVE,≤ 0.25
19,KRVH,≤ 0.25
20,WMPP,≤ 0.25
21,VEVI,≤ 0.25

row,Variant,enrichment ratio
1,ANAP,≤ 0.25
2,VLWA,≤ 0.25
3,YCMI,5.48
4,YASH,≤ 0.25
5,FKNF,≤ 0.25
6,WVHT,≤ 0.25
7,TWRD,≤ 0.25
8,FKAM,≤ 0.25
9,SEFL,6.11
10,SRNW,≤ 0.25
11,KARD,≤ 0.25
12,EVFR,≤ 0.25
13,DARW,≤ 0.25
14,QEYV,≤ 0.25
15,TVLE,≤ 0.25
16,MCQF,≤ 0.25
17,FMMH,≤ 0.25
18,WCFV,≤ 0.25
19,GPNH,≤ 0.25
20,RQLS,≤ 0.25
21,NRSV,≤ 0.25

row,Variant,enrichment ratio
1,TVMI,1.87
2,KKPA,≤ 0.25
3,ACIF,9.1
4,YCLA,3.46
5,DGFS,≤ 0.25
6,YHAD,≤ 0.25
7,TDVC,24.1
8,YATQ,0.489
9,VAFN,≤ 0.25
10,YLIM,≤ 0.25
11,FCPW,≤ 0.25
12,DPTA,≤ 0.25
13,GYEA,≤ 0.25
14,FMAM,≤ 0.25
15,AIEF,≤ 0.25
16,LMTD,≤ 0.25
17,SRYW,≤ 0.25
18,WLGS,≤ 0.25
19,NCRQ,≤ 0.25
20,FVFE,≤ 0.25
21,KFIV,≤ 0.25
